Assay results published in PubChem BioAssay (NCI).
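All cell lines were grown in 96-well plates and treated with compound for 48 hours. Here, GI50 denotes the concentration required for 50% inhibition of growth. TGI denotes the concentration required for complete inhibition of growth.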

Test system: NCI-H322M lung
Experiment: NCI anticancer screen, dose series, 48 h

Structure (SMILES) | TGI | GI50
COc1ccc(/C=C(\NC(=O)c2ccccc2)c2nc3ccccc3[nH]2)cc1OC | > 100 µM | 
Cc1ccc(/C=C2\NC(=S)NC2=O)cc1 | > 100 µM | 
CN/N=C(/c1nc2ccc([N+](=O)[O-])cc2[nH]c1=O)C(O)c1ccc(C(O)/C(=N\NC)c2nc3ccc([N+](=O)[O-])cc3[nH]c2=O)cc1 (stereo not drawn) | > 100 µM | 
CCOc1cccc2c1N[S@@](=O)S2 | > 100 µM | 
CC(C)(C)OC(=O)N1NC(c2ccccc2)CC1c1ccccc1 (stereo not drawn) | > 100 µM | 
N=c1ccc2nc3ccc(N)cc3sc-2c1 | > 100 µM | 14.4 µM
COc1ccc(-c2c(C#N)c(N)nc(N3CCOCC3)c2C#N)cc1 | 85.3 µM | 18.4 µM
CC(=O)/C=C/c1ccc(Nc2c3ccccc3nc3occ(Cl)c23)cc1 | 42.1 µM | 11.7 µM
FC(F)(F)c1ccc2c(c1)nc1n2C(c2c(Cl)cccc2Cl)SC1 (stereo not drawn) | 38.6 µM | 
CSc1ncnc2c1ncn2CC(=O)C1CCC2C3CCC4=CC(=O)CCC4(C)C3CCC12C (stereo not drawn) | > 100 µM | 
O=c1[nH]nc(Cc2ccccc2)n1/N=C/c1ccco1 | > 100 µM | 
CC1(C)COC2C(N(Cc3ccccc3)Cc3ccccc3)C(=O)N21 (stereo not drawn) | > 100 µM | 
Nc1[nH]c(=O)nc2snnc12 | > 100 µM | 
O=[N+]([O-])c1cc([As](Br)c2ccc(O)c([N+](=O)[O-])c2)ccc1O | 3.36 µM | 
COc1ccc(-c2c(-c3ccccc3)c(C)c3ccccn23)cc1 | > 100 µM | 
CC12CCCCC1=C(F)C(F)(F)S2 (stereo not drawn) | > 100 µM | 
COc1ccc2c(c1)CN([C@@H](C)[C@H]1CC[C@H]3[C@@H]4CC[C@H]5C[C@@H](O)CC[C@]5(C)[C@H]4CC[C@]13C)CO2 | 10.8 µM | 
Cn1c(=O)n(C)c2cc(CNCCNc3ccnc4cc(Cl)ccc34)ccc21 | > 100 µM | 24.4 µM
COc1cc(C2c3cc4c(cc3OC(NNS(=O)(=O)c3ccc(C)cc3)C2C)OCO4)cc(OC)c1OC (stereo not drawn) | 39.8 µM | 
CCn1cc(/C=C2\Oc3cc(OCC#N)ccc3C2=O)c2cc(OC)ccc21 | > 100 µM | 1.1 µM
COc1ccc(O)c(C(=O)CCC(=O)O)c1 | > 100 µM | 
O=c1[nH]nc(-c2ccccc2)n1/N=C/c1ccccc1O | > 100 µM | 
ClCc1cccc(Cn2cnc3c(Cl)nc(Cl)nc32)c1 | 5.07 µM | 2.3 µM
COc1ccc(/C=C2/C(=O)N(C(=O)c3ccccc3O)N=C2C)cc1 | > 100 µM | 
O=c1[nH]nc(-c2ccccc2)n1/N=C/c1cccc([N+](=O)[O-])c1 | > 100 µM | 

Structure (SMILES) | TGI | GI50
COc1cccc2c1C(=O)c1c(O)c3c(c(O)c1C2=O)C[C@@](O)(C(=O)COC(=O)c1ccccc1)C[C@@H]3OC1CC(N)C(O)C(C)O1 (stereo partly drawn) | 1.55 µM | 0.387 µM
COc1ccc(Nc2nc(Nc3cc(C)[nH]n3)c3cc(OC)c(OC)cc3n2)cc1 | 2.24 µM | 1.01 µM
OC1=CN=COc2ccccc21 | > 100 µM | 
COc1cc(C2=NN(C(C)=O)C(c3cc(OC)c(OC)c(OC)c3)C2)ccc1O (stereo not drawn) | > 100 µM | 0.763 µM
Nc1nccc(NCC2(CO)CC(OCc3ccccc3)C2)n1 (stereo not drawn) | > 100 µM | 
CC1CN=C(Nc2cccc(F)c2)S1 (stereo not drawn) | > 100 µM | 
CCCCCCCCCc1ccc(OCCOCCOCCOCCOCCOCCOCCOCCOCCO)cc1 | 7.67 µM | 2.08 µM
Cn1cc(-c2cc(-c3cn(C)c4ccc(Cl)cc34)[nH]n2)c2cc(Cl)ccc21 | > 100 µM | 5.73 µM
COc1ccc2c(c1)C(=O)/C(=C/c1cccc(OCC(=O)Nc3nc(C)c(C)s3)c1)O2 | 34.1 µM | 18.9 µM
COc1cc2c(c3c1c(=O)c1ccccc1n3C)C=CC(C)(C)O2 | > 100 µM | 
C=C1C(=O)C23[C@H](O)C1CC[C@H]2[C@]12COC3(O)[C@@H](O)[C@@H]1C(C)(C)CC[C@@H]2O | 29.4 µM | 
O=C1CCCC/C1=C\c1ccc([N+](=O)[O-])cc1 | > 100 µM | 
C[C@@H](C[C@H]1OC(C)(C)O[C@@H]1C(C)(C)O)[C@H]1CC=C2[C@]3(C)[C@H](O)C[C@H]4C(C)(C)[C@H](O)CC[C@]4(C)[C@H]3CC[C@]21C | 21.9 µM | 
NC(=O)c1cccnc1 | > 100 µM | > 100 µM
Nc1nc(N)c2cc(Sc3ccc4ccccc4c3)ccc2n1 | 5.36 µM | 
COc1cc(OCc2cccc(-c3ccccc3)c2C)cc(OC)c1CN1CCCCC1C(=O)NCCOCCOCCN (stereo not drawn) | 13 µM | 3.19 µM
COc1ccc2c(O)c(S(=O)(=O)c3ccc(C)cc3)c(=O)oc2c1OC | > 100 µM | 
COc1cc(F)ccc1-c1cc(Nc2cc(CS(C)(=N)=O)ccn2)ncc1F (stereo not drawn) | > 100 µM | 0.0783 µM
Oc1[nH]c2ccccc2c1C1=Nc2ccccc2/C1=N\OCCOC1OCC(O)C(O)C1O (stereo not drawn) | > 100 µM | 
COc1ccc(C2=NC(=O)NC2c2ccc(OC)cc2)cc1 (stereo not drawn) | > 100 µM | 23.8 µM
N=c1c2ccccc2sc2nc3ccccc3n12 | > 100 µM | 
COC(=O)c1cc(=O)nc2cc3cccccc3n12 | > 100 µM | 
N#Cc1c2ccc([N+](=O)[O-])cc2c(=O)n2c1[nH]c1ccc(C(F)(F)F)cc12 | > 66.1 µM | 
COC(=O)C(=O)C(CC(=O)Nc1ccc(C)cc1)C(=O)OC (stereo not drawn) | > 100 µM | 
O=C1CCC[C@H]2O[C@@H](COC(=O)c3ccccc3)C[C@H]2O1 | > 100 µM | 

Structure (SMILES) | TGI | GI50
O=C1/C(=C\c2ccco2)Oc2ccccc21 | > 100 µM | 
O=c1c2c(-c3ccccc3)c3ccccc3nc2cnn1-c1ccccc1 | > 100 µM | 
O=C1CCC2(c3ccccc3)Nc3ccccc3N12 (stereo not drawn) | > 100 µM | 
COc1cc(/C=C2\C[C@H]3[C@@H]4CCC5=CC(=O)CC[C@]5(C)[C@H]4CC[C@]3(C)C2=O)cc(OC)c1OC | > 100 µM | 
COc1cc([C@@H]2c3cc4c(cc3[C@H](OC(C)=O)[C@H]3COC(=O)[C@@H]23)OCO4)cc(OC)c1OC | > 100 µM | 3.14 µM
CCc1ccc2[nH]c(O)c(C3=Nc4ccccc4C3=O)c2c1 | 33.7 µM | 
COc1cccc(CNc2ncnc3c2ncn3C2OC(CO)C(O)C2O)c1O (stereo not drawn) |  | 0.136 µM
CC[C@@H](CCCCC1CC[C@H]2CC(=O)C[C@@H]12)OC (stereo partly drawn) | > 100 µM | 
C/C(=N\NC(=S)N1CCC(N2CCCCC2)CC1)c1ccccn1 | 8.13 µM | 
Cc1ccc(S(=O)(=O)c2nc(-c3ccccc3)oc2S(C)(=O)=O)cc1 | 30.5 µM | 16.9 µM
C=C1C(=O)O[C@H]2[C@H]1CC/C(COC(=O)N[C@H]1C[C@H](O[C@H]3C[C@](O)(C(=O)CO)Cc4c(O)c5c(c(O)c43)C(=O)c3c(OC)cccc3C5=O)O[C@@H](C)[C@H]1O)=C\CC[C@@]1(C)O[C@@H]21 | > 50 µM | > 50 µM
CO/N=C\c1ccc2c(c1)Sc1ccccc1O2 | > 100 µM | 
COc1c2c(nc3ccccc13)-c1cc(C(CC(=O)OC(C)(C)C)C(=O)OC(C)C)c(CO)c(=O)n1C2 (stereo not drawn) | > 100 µM | 
O=c1cc(-c2ccccc2)[nH]c2cc(F)cc(F)c12 | > 100 µM | 
CCCCc1ccc(-n2sc3ncc(-c4ccccc4)cc3c2=O)cc1 | > 100 µM | 
Nc1ccc(-c2nc3ccc(F)cc3s2)cc1Cl | > 100 µM | 
O=C(Nc1cccc2[nH]c(C(F)(F)F)nc12)c1cc(Cl)ccc1Cl | > 100 µM | 3.59 µM
CCCN(CCC)c1ccc(C=O)c(Cl)c1 | > 100 µM | > 100 µM
CC(=O)NC1(NC(C)=O)C2CC(C1Cc1ccccc1)C(C)(C)C2C (stereo not drawn) | > 100 µM | 
Clc1ccc(/C=C/c2ccc3ccccc3n2)cc1 | > 22.5 µM | 0.438 µM
C[C@H]1C2Cc3cc(O)ccc3[C@@]1(C)CCN2CCc1ccc(N)cc1 | > 100 µM | 
CCOC(=O)c1sc(-c2ccc(OS(=O)(=O)C[C@]34CCC(CC3=O)C4(C)C)c(C=O)c2)nc1C | > 50 µM | 1.52 µM
O=C(/C=C1\Sc2ccccc2N=C1CC(=O)c1ccccc1)c1ccccc1 | 94.7 µM | 
CC12CC(=O)Nc3ccccc3N1C(c1ccccc1)=NO2 (stereo not drawn) | > 100 µM | 
CC(C)(C)C(=O)Oc1ccc(/C=C/C(=O)c2ccc(OC(=O)C(C)(C)C)cc2)cc1 | > 100 µM | 

Structure (SMILES) | TGI | GI50
NC(=O)CSc1c2cc(O)ccc2nc2ccc(O)cc12 | > 10 µM | 
O=c1oc(-c2ccc(O)cc2)cc2cc(O)ccc12 | 97.7 µM | 
O=[N+]([O-])c1ccc(C2ON=C(c3ccccc3)N2C23CC4CC(CC(C4)C2)C3)cc1 (stereo not drawn) | > 10 µM | 
COc1ccc(-c2cnnn2-c2nonc2-n2cccc2)cc1OC | > 100 µM | 8.97 µM
Cc1ccc(S(=O)C[C@](NC(=O)OCc2ccccc2)(Sc2ccccc2)C(F)F)cc1 (stereo partly drawn) | 33 µM | 
CCCC(=O)N[C@H]1CCc2cc(OC)c(OC)c(OC)c2-c2ccc(SC)c(=O)cc21 | 3.71 µM | 
Nc1ccccc1C#CC(=O)c1cccc(C(F)(F)F)c1 | 33.9 µM | 
O=[N+]([O-])C(/C(Cl)=C(\Cl)Br)=C(/Cl)SCc1ccccc1 | 30.5 µM | 
CC1(C)OC(=S)N(c2ccccc2)C12C=Cc1cc3ccccc3nc1S2 (stereo not drawn) | > 100 µM | 
O=C(c1ccc2ccccc2c1)c1nc2cc(F)ccc2[n+]([O-])c1C(F)(F)F | 34.4 µM | 17.1 µM
CCC(C)C(N)C(=O)N/N=C\c1c2c(nc3ccccc13)-c1cc3c(c(=O)n1C2)COC(=O)[C@]3(O)CC (stereo partly drawn) | > 100 µM | 
COc1cc(C(=O)Oc2c(C(C)=O)sc3c2c(=O)n(-c2ccccc2)c(=S)n3-c2ccccc2)cc(OC)c1OC | 53 µM | 
c1ccc2c(c1)c1ccccc1n2Cn1c2ccccc2c2ccccc21 | > 100 µM | 
C=C1C(=O)OC2C1CCC(C)C1(O)C=CC(=O)C21C (stereo not drawn) | > 10 µM | 
CN(C)N1C(=O)SCC(c2ccccc2)(c2ccccc2)C1=O | > 100 µM | 
N#Cc1c(Cl)c2cccnc2n2c1nc1ccccc12 | 25 µM | 
COC1(C2c3ccccc3CCN2C(=O)OC(C)(C)C)C(=O)C(c2ccccc2)=C1N(C)C (stereo not drawn) | > 100 µM | 
COc1cccc(-c2cc(=O)c3cc4c(cc3[nH]2)OCO4)c1 | > 100 µM | 
COc1cc(OC)c2sc(-c3ccc(-n4cncc4-c4ccc(OC)c(OC)c4)cc3)nc2c1 | > 100 µM | > 100 µM
CCN1[C@@H](C(=O)NC23CCC(C(=O)O)(CC2)CC3)[C@H](c2cccc(Cl)c2F)[C@]2(C(=O)Nc3cc(Cl)ccc32)C12CCCCC2 | 15.9 µM | 2.65 µM
C=C(CN1CCc2c([nH]c3ccccc23)C1)c1ccc(C(=O)Nc2ccccc2N)cc1 | 11.8 µM | 1.98 µM
C1=Cc2nc1c(-c1ccccc1)c1ccc([nH]1)c(-c1ccccc1)c1nc(c(-c3ccccc3)c3ccc([nH]3)c2-c2ccccc2)C=C1 | > 100 µM | 
Cc1ccc2nc3n[nH]c(N)c3nc2c1 | > 100 µM | 
Cc1cc(N/N=C/c2nc(-c3ccc(Cl)cc3)oc2C)c2cc(Br)ccc2n1 | 9.14 µM | 2.59 µM
